# According to paper PMC4336329 (PLoS ONE, 2015):
# Screen size: about 310,000 compounds; about 14,000 (4.5%) showed an effect of 50% or more. Effects have a minus sign here. The list shows a part of the results.
# Target: human ether-à-go-go-related gene (hERG) potassium channel (human, UniProt Q12809)
# Assay: primary screen, population patch clamp on CHO cells stably expressing hERG
# 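Note: peak tail current of the secondary pulse compared with the same well before compound.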
# human ether-à-go-go-related gene (hERG) potassium channel, sequence (Q12809 whole entry, looked up): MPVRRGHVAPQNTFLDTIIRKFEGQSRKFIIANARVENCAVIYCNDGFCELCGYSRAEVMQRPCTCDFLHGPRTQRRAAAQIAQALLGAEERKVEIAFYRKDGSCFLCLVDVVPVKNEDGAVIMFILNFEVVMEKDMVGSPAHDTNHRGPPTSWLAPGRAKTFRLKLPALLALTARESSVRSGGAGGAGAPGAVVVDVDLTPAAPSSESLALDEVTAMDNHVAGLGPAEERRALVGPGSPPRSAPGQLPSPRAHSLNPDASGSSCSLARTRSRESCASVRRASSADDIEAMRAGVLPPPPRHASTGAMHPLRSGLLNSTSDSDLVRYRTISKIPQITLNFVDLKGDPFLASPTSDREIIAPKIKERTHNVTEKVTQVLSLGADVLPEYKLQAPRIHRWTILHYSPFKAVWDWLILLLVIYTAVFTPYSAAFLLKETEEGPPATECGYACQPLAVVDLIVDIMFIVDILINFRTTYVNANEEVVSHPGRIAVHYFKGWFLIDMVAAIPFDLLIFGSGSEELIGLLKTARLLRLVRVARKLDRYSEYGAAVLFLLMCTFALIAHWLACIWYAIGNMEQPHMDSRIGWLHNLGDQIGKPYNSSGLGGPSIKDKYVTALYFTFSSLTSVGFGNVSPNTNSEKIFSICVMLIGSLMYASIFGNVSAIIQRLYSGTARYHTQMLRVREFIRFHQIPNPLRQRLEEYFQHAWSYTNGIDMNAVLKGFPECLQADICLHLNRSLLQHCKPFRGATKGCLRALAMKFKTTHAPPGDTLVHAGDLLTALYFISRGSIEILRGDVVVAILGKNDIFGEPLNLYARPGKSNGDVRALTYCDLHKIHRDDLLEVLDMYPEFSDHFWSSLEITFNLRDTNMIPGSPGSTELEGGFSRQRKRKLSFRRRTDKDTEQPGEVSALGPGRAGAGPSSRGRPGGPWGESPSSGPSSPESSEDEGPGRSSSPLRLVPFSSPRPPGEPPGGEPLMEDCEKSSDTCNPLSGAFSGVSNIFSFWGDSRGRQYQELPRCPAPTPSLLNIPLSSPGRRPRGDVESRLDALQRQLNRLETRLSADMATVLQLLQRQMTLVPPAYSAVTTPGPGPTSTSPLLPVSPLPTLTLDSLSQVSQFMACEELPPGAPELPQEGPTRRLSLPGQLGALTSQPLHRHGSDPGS
row,SMILES,"hERG current change (%, negative = inhibition) at 10uM"
1,CC(=O)Nc1ccccc1NC(=O)C/C(C)=N/NC(=O)c1ccncc1,19.6%
2,O=C(Nc1ccccc1)NC1CCN(CCCN2C(=O)c3ccccc3C2=O)CC1,-61.4%
3,CC(C)(C)NS(=O)(=O)c1ccc(NC(=S)NC(=O)C2CCC2)cc1,14.2%
4,O=C(Cn1cncc1-c1ccc([N+](=O)[O-])cc1)Nc1cccc2ccccc12,6.12%
5,Cn1cc(CNCc2ccc(OC(F)(F)F)cc2)c(-c2ccc3c(c2)OCCO3)n1,-43%
6,CCOC(=O)n1n[n+]([O-])c2ccccc21,35.5%
7,O=C(NCCCN1CCOCC1)c1cccs1,18%
8,COc1ccc(N2CCN(Cc3nc(N)nc(Nc4ccccc4OC)n3)CC2)cc1,-62%
9,Cc1cccc2c1-c1sc(C(=O)Nc3cccnc3)cc1CO2,9.26%
10,COC(=O)c1ccc(S(=O)(=O)N2Cc3ccccc3C2)cc1,17.8%
11,CN(C(=O)c1ccc(NC(=O)c2ccco2)cc1)c1ccccc1,6.66%
12,NC(=O)CC(NC(=O)c1ccccc1)c1ccc(NCCCN2CCCC2=O)c([N+](=O)[O-])c1 (stereo not shown),9.02%
13,CC1=C([N+](=O)[O-])C(c2ccc(Cl)cc2)NC(=O)N1 (stereo not shown),7.82%
14,CC(=O)NCCc1nc2cc(NC(=O)COc3cccc(C)c3)ccc2n1C,6.53%
15,O=C(Cn1cnc(S(=O)(=O)N2CCOCC2)c1)Nc1ccc(OC(F)(F)F)cc1,27.1%
16,Nc1ccc2c(c1)nnn2-c1ccccc1,-7.35%
17,O=C(CSc1nnc(-c2ccccc2Cl)o1)N1CCOCC1,-3.86%
18,CC1=C(C(=O)Nc2ccccc2C)C(c2ccc(C)o2)NC(=S)N1 (stereo not shown),7.85%
19,CN(C)CCCOc1nc2c(c(=O)n(C)c(=O)n2C)n1C.Cl,16.7%
20,COCC(C)n1c(C)cc(C(=O)COC(=O)CCc2nc3ccccc3c(=O)[nH]2)c1C (stereo not shown),5.91%
21,O=P(NS(=O)(=O)c1ccccc1)(Oc1ccccc1)Oc1ccccc1,5.77%
22,CCn1cnc2cc(NS(=O)(=O)c3ccc(OC)c(OC)c3)ccc21,13.5%

row,SMILES,"hERG current change (%, negative = inhibition) at 10uM"
1,COc1cc(NC(=S)Nc2ccccn2)c(OC)cc1Cl,15.8%
2,CC1=CC(=O)N(c2ccn(C)n2)C1=O,20.4%
3,CC(=NCCO)c1c(O)n(C)c(=O)n(C)c1=O,12.3%
4,COc1ccc(Cl)cc1C(=O)NNC(=O)CCNC(C)=O,24.7%
5,Cc1ccc(NS(=O)(=O)c2ccc(C)c(NC(=O)COc3ccccc3)c2)c(C)c1,-9.8%
6,COC(=O)N/N=C/c1ccc(-c2ccc(Cl)cc2Cl)o1,14.3%
7,Cn1cc(/C=C(\NC(=O)c2ccccc2)C(=O)NCCCN2CCOCC2)c2ccccc21,3.43%
8,COc1ccc(Cl)cc1NC(=O)CN(C)C1CCS(=O)(=O)C1 (stereo not shown),-23.3%
9,COc1ccc(C(=O)N=C2CCC(C#N)=C3c4cc(OC)c(OC)cc4CCN23)cc1,11.5%
10,CSc1ncc(C(=O)Nc2ccccc2Cl)c(C)n1,13.6%
11,O=C(NCc1ccc2c(c1)OCO2)c1cccc(S(=O)(=O)N2CCOCC2)c1,-10.1%
12,Cn1c(COc2ccccc2)nnc1SCC(=O)Nc1ccc(N2CCOCC2)cc1,2.57%
13,CCOc1ccccc1C(=O)N[C@H](C(=O)Nc1nc2c(s1)CCCC2)C(C)C,9.91%
14,CC(NC(=O)CSc1nnc(COc2ccccc2)o1)c1ccccc1 (stereo not shown),-13.9%
15,CSc1ccc(/C=N/Nc2ccc(Cl)c(C(=O)O)c2)cc1,6.73%
16,CCOC(=O)c1c(-c2ccc(-c3ccccc3)cc2)csc1NC(=O)CCN1CCOCC1,13.8%
17,O=C(CCl)Nc1cc(S(=O)(=O)N2CCCCCC2)ccc1Cl,-22.9%
18,O=C1CC(c2ccccc2)CN1Cc1ccccc1 (stereo not shown),-3.31%
19,COc1ccc(NC(=O)CN2CCN(S(=O)(=O)c3cccs3)CC2)cc1Cl,-36.9%
20,Cc1cccc(CN2CCC(Oc3ccc(C(=O)N4CCCC4)cc3)CC2)n1,5.49%
21,CSc1nnc(-c2ccccc2Cl)n1N,-2.43%
22,Cc1cccc(NC(=O)CCCSc2nc3ccccc3[nH]2)c1,-13%

row,SMILES,"hERG current change (%, negative = inhibition) at 10uM"
1,O=C(CN(C(=O)c1csnn1)c1ccc(F)cc1)NCc1ccc2c(c1)OCO2,9.12%
2,CCC1CCCCN1CCCNC(=O)C1CCN(c2nnc(-n3cccc3)s2)CC1 (stereo not shown),-18.7%
3,CCOCCCNc1ncnc2c1[nH]c1ccccc12,-8.92%
4,Cc1cc(C)c(S(=O)(=O)NC2CCN(Cc3ccccc3)CC2)c(C)c1.Cl,-47.6%
5,CC(C)NCC(O)COC1C2CC3CC(C2)CC1C3.Cl (stereo not shown),7.13%
6,CC(C)(C)C(=O)/C=c1\s/c(=C\c2ccc(-c3ccc([N+](=O)[O-])cc3)o2)c(=O)n1CC(=O)NC(N)=O,18.9%
7,Cc1ccc(C2C3=C(CC(C)(C)CC3=O)Nc3[nH]c(=S)[nH]c(=O)c32)cc1 (stereo not shown),42.3%
8,Cc1sc(NC(=O)CN(C)C2CCCCC2)nc1-c1ccc2c(c1)CCN2S(=O)(=O)c1ccccc1,11%
9,COc1cc2nc(CN(CCC(C)C)Cc3nc4cc(OC)c(OC)cc4c(=O)[nH]3)[nH]c(=O)c2cc1OC,-2.68%
10,CC1CN(C(=O)c2ccccc2OCc2ccccc2Cl)CC(C)O1 (stereo not shown),-6.54%
11,COc1ccc(N2CCN(C(=O)CSc3nc4[nH]ncc4c(=O)n3-c3cccc4ccccc34)CC2)cc1,-30%
12,COc1ccc2c(c1)c(C(C)=O)c(C)n2C,4.06%
13,CCN(CC)CCNS(=O)(=O)c1ccc(Cl)cc1.Cl,-12.9%
14,COC(=O)c1cc(NS(=O)(=O)c2ccc(N3CCCCCC3)c([N+](=O)[O-])c2)cc(C(=O)OC)c1,4.17%
15,O=C(NCCCN1CCOCC1)c1ccc(-n2nc(C(F)(F)F)cc2-c2cccs2)cc1,-80.4%
16,CC(C)(C)NC(=O)Nc1ccc(Br)cc1,9.71%
17,CCC/C(=N\NC(=O)Cc1csc(N2CCOCC2)n1)c1ccccc1,-13.5%
18,Cc1nnc(NC(=O)CSc2nccn2-c2cccc(C)c2C)s1,8.58%
19,Cc1ccc(CNC(=O)C2CCN(S(=O)(=O)c3ccc4c(c3)CC(C)N4C(=O)C3CCC3)CC2)o1 (stereo not shown),-5.01%
20,COc1c2occc2c(OC)c2c(=O)cc(C(F)(F)F)oc12,5.02%
21,COc1cc(-c2cc(C(=O)Nc3ccccc3N3CCOCC3)c3ccccc3n2)cc(OC)c1OC,-8.6%
22,Cc1sc(NC(=O)CSc2nc(N)cc(N)n2)c(C#N)c1C,10.5%

row,SMILES,"hERG current change (%, negative = inhibition) at 10uM"
1,COc1ccc(S(=O)(=O)N2CCSCC2)cc1C(N)=O,20%
2,Cc1csc(NC(=O)C2=NN(c3ccccc3)C(=O)CC2)n1,13.6%
3,C=CCc1cc(Cl)ccc1OCCOCCNC(C)CC.O=C(O)C(=O)O (stereo not shown),-69.2%
4,O=C(Nc1nnc(C2=COCCO2)o1)c1ccc(Cc2ccccc2)cc1,-10.2%
5,C=CCOC(=O)C1CC=CCC1C(=O)Oc1ccc(F)cc1F (stereo not shown),-18%
6,O=[N+]([O-])c1ccc(N2CCN(S(=O)(=O)c3ccccc3[N+](=O)[O-])CC2)cc1NCc1cccnc1,-8.91%
7,CN(CC(=O)Nc1cccc2ccccc12)C(=O)c1ccc(F)cc1F,3.89%
8,O=C(N/N=C\c1ccc(F)cc1)c1csnn1,1.56%
9,CCC1CCCCN1C(=O)COC(=O)c1cc(C)nc2ccccc12 (stereo not shown),-9.3%
10,Cc1nnn(C23CC4CC(CC(C4)C2)C3)n1,7.98%
11,COCCn1c(SCC#N)nnc1-c1ccccc1,-6.95%
12,Cc1ccc(C)c(Cn2c(=O)n(CCCC(=O)NCc3ccco3)c(=O)c3sccc32)c1,-8.02%
13,O=S(=O)(c1ccccc1)N1CCN(c2ccnc3cc(Cl)ccc23)CC1,-84%
14,O=C(CCSc1ccccc1)NCCSCc1ccco1,-24.9%
15,CC1CCCN(Cc2c(O)ccc3c4c(c(=O)oc23)CCCC4)C1 (stereo not shown),-9.99%
16,COc1ccc(C(=O)/C=C/c2ccc(O)cc2)c(O)c1CC=C(C)C,-7.26%
17,COc1cc2c(cc1OC)/C(=C/C(=O)c1ccc(OC)c([N+](=O)[O-])c1)NCC2,0.426%
18,Cc1noc(C)c1C(=O)N1CCN(c2ccc(OCc3ccccc3)cc2)CC1,5.74%
19,N#Cc1nc(Cc2cccc3ccccc23)oc1NCc1ccc(F)cc1,22.5%
20,CCCCCCSc1nsc(NC(=O)CC(C)C)n1,6.01%
21,CCn1ncc(C2=NOC(C(=O)Nc3cnn(C45CC6CC(CC(C6)C4)C5)c3)C2)c1C (stereo not shown),-21.8%
22,CC1(C)CC(=O)c2cnc(NC(=O)Cc3ccc(Cl)cc3)nc2C1,-10.8%
